Common to all, as to test: Primary Screen for Target Class Profiling of Small Molecule Inhibitors of Methyltransferases
Test [1] addresses Glycine N-methyltransferase (Homo sapiens) (UniProt Q14749). As to conditions: purified enzyme, MTase-Glo SAH luminescence; measured here: GNMT inhibition; at 40 µM; stronger effect = lower value. The essentials: (§1)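 Each enzyme was assayed with SAM and its substrate. SAH formation detected by MTase-Glo luminescence; single-point 40 uM screen[…].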
Test [2] concerns the target Guanidinoacetate N-methyltransferase (Homo sapiens) (UniProt Q14353). The settings on record: purified enzyme, MTase-Glo SAH luminescence; measured here: GAMT inhibition; at 40 µM; stronger effect = lower value. The essentials:
as §1

The target of test [3] is Histamine N-methyltransferase (Homo sapiens) (UniProt P50135). The settings on record: purified enzyme, MTase-Glo SAH luminescence; measured here: HNMT inhibition; at 40 µM; stronger effect = lower value. The gist of the method:
as §1

Test [4] concerns the target Nicotinamide N-methyltransferase (Homo sapiens) (UniProt P40261). The settings on record: purified enzyme, MTase-Glo SAH luminescence; measured here: NNMT inhibition; at 40 µM; stronger effect = lower value. The essentials: as §1
Test [5] has as its target Phenylethanolamine N-methyltransferase (Homo sapiens) (UniProt P11086). As to conditions: purified enzyme, MTase-Glo SAH luminescence; measured here: PNMT inhibition; at 40 µM; stronger effect = lower value. The essentials:
as §1

Structures are written as SMILES. Some of the results follow. These are further read-outs of the screen, such as a control signal, another cell line or another target. No call is given for them.
% is scaled to controls: 0 for no effect and ±100 for the full control effect.

As for `CN1C(=O)CC(C(=O)O)C12CCN(Cc1cccc(Cn3cccn3)c1)CC2` (stereo not drawn), the activity change, negative = inhibition in test [1] was -2.25%; in test [2] it was -7.49%; in test [3] it was -2.75%; in test [4], -12.4%; in test [5], -7.8%.
With `CC(C)Cn1c(=O)c2ccccc2n2c(CCC(=O)Nc3ccccc3)nnc12`, the activity change, negative = inhibition is -7.65% in test [1]; -2.16% in test [2]; -6.93% in test [3]; -6.08% in test [4]; -11.1% in test [5].
On to `CCOc1ccc(CCN2C(=O)c3ccc(-c4ccco4)n3CC2(C)C(=O)NCc2ccccc2)cc1` (stereo not drawn), for which the activity change, negative = inhibition in test [1] was -5%; in test [2] it was 3.88%; in test [3], -5.29%; in test [4] it was -6.9%; in test [5], -5.24%.
Regarding `CCn1ccc2oc(C)c(C(=O)N3CCN(c4cccc(C)c4C)CC3)c2c1=O`, the activity change, negative = inhibition in test [1] is -3.59%; in test [2], 1.62%; in test [3] it was -0.064%; in test [4] it was -2.84%; in test [5], 2.63%.
With `O=S(=O)(c1ccc(F)cc1)c1nnn2c1nc(Nc1ccc(F)cc1)c1ccccc12`, the activity change, negative = inhibition in test [1] was -0.596%; in test [2], 0%; in test [3], 6.76%; in test [4], 2.93%; in test [5], 1.34%.
For `CC(C)Oc1ccc(CN2C(=O)c3nc4ccccc4n3CC2(C)C(=O)NC2CCCCC2)cc1` (stereo not drawn), the activity change, negative = inhibition is -1.66% in test [1]; 3.76% in test [2]; 3.62% in test [3]; -1.21% in test [4]; -3.73% in test [5].
With `O=C1CCC(C(=O)N2CCSCC2)CN1CCc1cccc(F)c1` (stereo not drawn), the activity change, negative = inhibition was -2.92% in test [1]; -4.94% in test [2]; -2.14% in test [3]; -9.46% in test [4]; -6.25% in test [5].
`CCc1ccccc1NC(=O)CSc1nnc2n(CCC(C)C)c(=O)c3ccccc3n12`: the activity change, negative = inhibition was -6.25% in test [1]; 3.83% in test [2]; 3.85% in test [3]; -20% in test [4]; -2.46% in test [5].
Regarding `CC(C)(C(=O)O)c1cnc(N2CC[C@H](CO)[C@H](O)C2)nc1N1CCOCC1`, the activity change, negative = inhibition in test [1] was -3.53%; in test [2] it was -4.44%; in test [3], -0.424%; in test [4], -11.1%; in test [5], -6.7%.
In the same order, the values of `C[C@H]1[C@H](C)CC[C@]2(C(=O)OC3OC(CO)C(O)C(O)C3O)CC[C@]3(C(=O)O)C(=CCC4[C@@]5(C)CC[C@H](O[C@@H]6O[C@@H](C)[C@H](OC7OC(CO)C(O)C(O)C7O)[C@@H](O)[C@H]6O)C(C)(C)C5CC[C@]43C)[C@H]12` (stereo partly drawn) are -4.41%, 1.03%, 7.62%, -13.8% and -8.53%.
As to `COc1cccc(CN2C(=O)c3cc4ccccc4n3CC2(C)C(=O)NC2CCCC2)c1` (stereo not drawn), the activity change, negative = inhibition in test [1] is -1.66%; in test [2] it was 1.21%; in test [3], -3.31%; in test [4], -7.91%; in test [5], -3.56%.
As to `CC(C)=CCC[C@@](C)(O)[C@H]1CC[C@]2(C)[C@@H]1[C@H](O)CC1[C@@]3(C)CC[C@H](O[C@@H]4O[C@H](CO)[C@@H](O)[C@H](O)[C@H]4O[C@@H]4O[C@H](CO)[C@@H](O)[C@H](O)[C@H]4O)C(C)(C)[C@@H]3CC[C@]12C` (stereo partly drawn), the activity change, negative = inhibition in test [1] turned out to be 4.83%; in test [2] it was 22%; in test [3], 10.3%; in test [4] it was 7.08%; in test [5], 11%.
For `CN1CC[C@H](N(Cc2ccccc2)Cc2ccccc2)C[C@H](O)C1`, the activity change, negative = inhibition in test [1] is -9.88%; in test [2], -13.7%; in test [3], -8.64%; in test [4], -20%; in test [5] it was -13.5%.
In the same order, the values of `C=CCn1c(=O)c2ccc(C(=O)NCC(C)C)cc2n2c(=O)n(CC(=O)Nc3ccc(F)cc3)nc12` are 0.799%, 2.02%, 2.9%, -3.38% and -0.556%.
The matching figures for `Cc1ccsc1C(=O)N1CC(Oc2ccccc2-c2nc(-c3cnccn3)no2)C1`: -11.4%, -7.43%, -6.69%, -15.2% and -8.65%.
On to `COc1cc(OC)cc(C(=O)Nc2ccc3nc(Nc4cccc(C(F)(F)F)c4)cc(C)c3c2)c1`, for which the activity change, negative = inhibition was -6.43% in test [2], -20.5% in test [4] and -4.36% in test [5].
On to `Nc1c(S(=O)(=O)c2ccccc2)c2nc3ccccc3nc2n1-c1ccc(F)cc1`, for which the activity change, negative = inhibition was -8.47% in test [1]; -10.9% in test [2]; 4.5% in test [3]; -24.3% in test [4]; -8.12% in test [5].
For `COC1(C2=NCCN2)COc2ccccc2O1` (stereo not drawn), the activity change, negative = inhibition in test [1] is 6.34%; in test [2], 10.4%; in test [3], 11.1%; in test [4], -6.4%; in test [5] it was -3.74%.
For `Cc1ccc(Cn2c(=O)c3ccccc3n3c(SCC(=O)Nc4cccc(C)c4)nnc23)cc1`, the activity change, negative = inhibition in test [1] came to 0.867%; in test [2], 3.43%; in test [3], 3.66%; in test [4], 1.56%; in test [5] it was 3.12%.
For the compound `C=CCn1c(=O)c2ccc(C(=O)NC(C)C)cc2n2c(=O)n(CC(=O)NC(C)C)nc12`, the activity change, negative = inhibition was determined as 7.93% in test [1]; 0% in test [2]; 7.51% in test [3]; 2.53% in test [4]; 5.95% in test [5].
On to `COc1ccccc1CNC(=O)C1c2c(n(C)c3ccccc23)SCC(=O)N1Cc1cccs1` (stereo not drawn), for which the activity change, negative = inhibition in test [1] turned out to be 8.95%; in test [2] it was 1.18%; in test [3] it was 0.933%; in test [4], 2.82%; in test [5], 4.69%.
Turning to `Cc1ncc(-c2ccnc(Nc3ccc(S(C)(=O)=O)cc3)n2)n1C(C)C`, the activity change, negative = inhibition is -10.1% in test [1]; 0.212% in test [2]; 0.523% in test [3]; -17.8% in test [4]; 2.23% in test [5].
The matching figures for `CC(C)Cn1c(=O)c2ccccc2n2c(CCC(=O)N3CCN(c4ccccc4)CC3)nnc12`: -15.9%, 4.61%, -7.51%, -34% and -6.13%.
Take `COCCC1(N(C)C)CCN(C(=O)c2ccnn2C)CC1`: the activity change, negative = inhibition in test [1] was -2.6%; in test [2], -1.66%; in test [3], -1.64%; in test [4], -6.57%; in test [5], -3.66%.
In the case of `Cc1cccc(C(=O)N2C[C@H]3OC(=O)N(CCCN4CCOCC4)[C@H]3C2)c1`, the activity change, negative = inhibition in test [1] is -2.8%; in test [2] it was -2.57%; in test [3], -1.79%; in test [4] it was -8.98%; in test [5], -0.503%.
For `O=C(CC1CCCC1)N1CCCC(c2nn[nH]n2)C1` (stereo not drawn), the activity change, negative = inhibition in test [1] is 1.32%; in test [2], 2.22%; in test [3], 2.44%; in test [4] it was -4.12%; in test [5], 14.2%.
As to `Cc1nc2c3ccccc3n3c(CCCC(=O)NCCc4ccccc4)nnc3n2n1`, the activity change, negative = inhibition in test [1] was -7.44%; in test [2] it was 0%; in test [3] it was 2%; in test [4] it was 10.4%; in test [5] it was -2.31%.
Regarding `CCc1ccc(-c2nc(CSCC(=O)NCCc3ccccc3)c(C)o2)cc1`, the activity change, negative = inhibition in test [1] was -4.33%; in test [2], -5.56%; in test [3] it was -4.22%; in test [4], -29.5%; in test [5], -22.9%.
The matching figures for `CC1(C(=O)NC2CCCCCC2)Cn2c(ccc2-c2ccco2)C(=O)N1Cc1ccc(Cl)cc1` (stereo not drawn): -8.04%, 4.36%, 3.19%, -10.8% and -0.398%.
In the same order, the values of `COCCN1C[C@H]2CN(C(=O)C3CCC3)C[C@@]2(C(=O)O)C1` are -0.577%, 3.02%, 1.38%, 3.29% and 2.31%.
`Nc1nc(NCc2ccc(Cl)cc2Cl)cc(C2CC(O)C2)n1` (stereo not drawn): the activity change, negative = inhibition was -7.77% in test [1]; -8.78% in test [2]; -62% in test [3]; -45.3% in test [4]; -9.47% in test [5].
Consider `CCCC1c2cccn2CCN1C(=O)Nc1ccccc1Br` (stereo not drawn), for which the activity change, negative = inhibition in test [1] is 3.36%; in test [2], 1.15%; in test [3], -42.6%; in test [4] it was 3.62%; in test [5] it was 9.06%.
Turning to `Cc1ccc(-c2nnn3c2nc(NCc2ccccc2)c2ccccc23)cc1`, the activity change, negative = inhibition in test [1] was 0.807%; in test [2], 0%; in test [3] it was 3.19%; in test [4] it was 10.9%; in test [5] it was -1.95%.
As to `CCOc1ccccc1CN1C(=O)c2cc3ccccc3n2CC1(C)C(=O)NCc1ccccc1` (stereo not drawn), the activity change, negative = inhibition in test [1] is 3.13%; in test [2] it was 4.94%; in test [3], 5.69%; in test [4] it was 0.544%; in test [5], -0.452%.
For `COc1ccc(-c2n[nH]n3c2nc(=O)c2ccc(C(=O)NCc4ccc(C)cc4)cc23)cc1`, the activity change, negative = inhibition in test [1] stood at 0.682%; in test [2], 0%; in test [3] it was 9.83%; in test [4] it was 5.14%; in test [5], 4.2%.
With `Cn1cc(CCC(=O)N[C@@H]2CCOC[C@H]2Oc2ccc(C(=O)O)cc2)cn1`, the activity change, negative = inhibition in test [1] is 0.061%; in test [2], -4.18%; in test [3], -1.73%; in test [4] it was -3.56%; in test [5], -22.5%.
Take `CCN1C(=O)c2c(C(=O)NCCc3cccc(C)c3)ncn2CC1(C)C(=O)NC1CCCC1` (stereo not drawn): the activity change, negative = inhibition in test [1] is -1.33%; in test [2], 0.207%; in test [3] it was 8.89%; in test [4], 4.56%; in test [5], 7.47%.

The values are drawn from PubChem BioAssay AID1745853 (National Center for Advancing Translational Sciences (NCATS), 2022).
